Data as given in the supplement of paper PMC11876631.
± gives the standard deviation of the averaged measurements. Laboratory Escherichia coli strains with one amino-acid change in an essential protein, pooled on minimal glucose agar with carbenicillin or gentamicin at twice the control MIC (plus kanamycin and chloramphenicol for the plasmids), 48 h. Fold change of barcode share against drug-free plates; higher = less susceptible. Active = above 20 in both replicates (the paper's putatively resistant). '<' = one read or none on drug, '>' = one read or none on a drug-free plate. Shares are relative, so most strains fall below 1 when a few take over. Listed are strains with at least 15 reads on both drug-free plates, and hits; most hits rest on fewer reference reads. Replicate rank correlation about 0.5. Edits are read from barcodes.

Target: Escherichia coli (laboratory strain)
Assay: barcode share on antibiotic plates over drug-free plates; higher = less susceptible
Description: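 A pool of E. coli strains, each edited to carry one amino-acid change in an essential protein, was grown for 48 h on minimal glucose agar with or without antibiotic; strain barcodes were sequenced; mean of two replicates.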

[1] = antibiotic: carbenicillin, 2× MIC (3.1 µg/mL)
[2] = antibiotic: gentamicin, 2× MIC (MIC 0.45 µg/mL)

Protein | fold change of barcode share [1] | fold change of barcode share [2]
cysJ I458W (protein) MTTQVPPSALLPLNPEQLARLQAATTDLTPTQLAWVSGYFWGVLNQQPAALAATPAPAAEMPGITIISASQTGNARRVAEALRDDLLAAKLNVKLVNAGDYKFKQIASEKLLIVVTSTQGEGEPPEEAVALHKFLFSKKAPKLENTAFAVFSLGDSSYEFFCQSGKDFDSKLAELGGERLLDRVDADVEYQAAASEWRARVVDALKSRAPVAAPSQSVATGAVNEIHTSPYSKDAPLVASLSVNQKITGRNSEKDVRHIEIDLGDSGMRYQPGDALGVWYQNDPALVKELVELLWLKGDEPVTVEGKTLPLNEALQWHFELTVNTANIVENYATLTRSETLLPLVGDKAKLQHYAATTPIVDMVRFSPAQLDAEALINLLRPLTPRLYSIASSQAEVENEVHVTVGVVRYDVEGRARAGGASSFLADRVEEEGEVRVFIEHNDNFRLPANPETPVIMWGPGTGIAPFRAFMQQRAADEAPGKNWLFFGNPHFTEDFLYQVEWQRYVKDGVLTRIDLAWSRDQKEKVYVQDKLREQGAELWRWINDGAHIYVCGDANRMAKDVEQALLEVIAEFGGMDTEAADEFLSELRVERRYQRDVY | 2.76 ± 0.95 | 
cysJ I458Q (protein) MTTQVPPSALLPLNPEQLARLQAATTDLTPTQLAWVSGYFWGVLNQQPAALAATPAPAAEMPGITIISASQTGNARRVAEALRDDLLAAKLNVKLVNAGDYKFKQIASEKLLIVVTSTQGEGEPPEEAVALHKFLFSKKAPKLENTAFAVFSLGDSSYEFFCQSGKDFDSKLAELGGERLLDRVDADVEYQAAASEWRARVVDALKSRAPVAAPSQSVATGAVNEIHTSPYSKDAPLVASLSVNQKITGRNSEKDVRHIEIDLGDSGMRYQPGDALGVWYQNDPALVKELVELLWLKGDEPVTVEGKTLPLNEALQWHFELTVNTANIVENYATLTRSETLLPLVGDKAKLQHYAATTPIVDMVRFSPAQLDAEALINLLRPLTPRLYSIASSQAEVENEVHVTVGVVRYDVEGRARAGGASSFLADRVEEEGEVRVFIEHNDNFRLPANPETPVIMQGPGTGIAPFRAFMQQRAADEAPGKNWLFFGNPHFTEDFLYQVEWQRYVKDGVLTRIDLAWSRDQKEKVYVQDKLREQGAELWRWINDGAHIYVCGDANRMAKDVEQALLEVIAEFGGMDTEAADEFLSELRVERRYQRDVY | 2.42 ± 0.85 | 
acpS V122A (protein) MAILGLGTDIVEIARIEAVIARSGDRLARRVLSDNEWAIWKTHHQPVRFLAKRFAVKEAAAKAFGTGIRNGLAFNQFEVFNDELGKPRLRLWGEALKLAEKLGVANMHVTLADERHYACATAIIES | 0.829 ± 0.19 | 0.325 ± 0.39
cysJ I458P (protein) MTTQVPPSALLPLNPEQLARLQAATTDLTPTQLAWVSGYFWGVLNQQPAALAATPAPAAEMPGITIISASQTGNARRVAEALRDDLLAAKLNVKLVNAGDYKFKQIASEKLLIVVTSTQGEGEPPEEAVALHKFLFSKKAPKLENTAFAVFSLGDSSYEFFCQSGKDFDSKLAELGGERLLDRVDADVEYQAAASEWRARVVDALKSRAPVAAPSQSVATGAVNEIHTSPYSKDAPLVASLSVNQKITGRNSEKDVRHIEIDLGDSGMRYQPGDALGVWYQNDPALVKELVELLWLKGDEPVTVEGKTLPLNEALQWHFELTVNTANIVENYATLTRSETLLPLVGDKAKLQHYAATTPIVDMVRFSPAQLDAEALINLLRPLTPRLYSIASSQAEVENEVHVTVGVVRYDVEGRARAGGASSFLADRVEEEGEVRVFIEHNDNFRLPANPETPVIMPGPGTGIAPFRAFMQQRAADEAPGKNWLFFGNPHFTEDFLYQVEWQRYVKDGVLTRIDLAWSRDQKEKVYVQDKLREQGAELWRWINDGAHIYVCGDANRMAKDVEQALLEVIAEFGGMDTEAADEFLSELRVERRYQRDVY | 1.07 ± 0.1 | 
cysJ L566D (protein) MTTQVPPSALLPLNPEQLARLQAATTDLTPTQLAWVSGYFWGVLNQQPAALAATPAPAAEMPGITIISASQTGNARRVAEALRDDLLAAKLNVKLVNAGDYKFKQIASEKLLIVVTSTQGEGEPPEEAVALHKFLFSKKAPKLENTAFAVFSLGDSSYEFFCQSGKDFDSKLAELGGERLLDRVDADVEYQAAASEWRARVVDALKSRAPVAAPSQSVATGAVNEIHTSPYSKDAPLVASLSVNQKITGRNSEKDVRHIEIDLGDSGMRYQPGDALGVWYQNDPALVKELVELLWLKGDEPVTVEGKTLPLNEALQWHFELTVNTANIVENYATLTRSETLLPLVGDKAKLQHYAATTPIVDMVRFSPAQLDAEALINLLRPLTPRLYSIASSQAEVENEVHVTVGVVRYDVEGRARAGGASSFLADRVEEEGEVRVFIEHNDNFRLPANPETPVIMIGPGTGIAPFRAFMQQRAADEAPGKNWLFFGNPHFTEDFLYQVEWQRYVKDGVLTRIDLAWSRDQKEKVYVQDKLREQGAELWRWINDGAHIYVCGDANRMAKDVEQADLEVIAEFGGMDTEAADEFLSELRVERRYQRDVY | 0.656 ± 0.45 | 0.0171 ± 0.011
acpS I123A (protein) MAILGLGTDIVEIARIEAVIARSGDRLARRVLSDNEWAIWKTHHQPVRFLAKRFAVKEAAAKAFGTGIRNGLAFNQFEVFNDELGKPRLRLWGEALKLAEKLGVANMHVTLADERHYACATVAIES | 0.39 ± 0.091 | 0.0189 ± 0.021
cysS M294A (protein) MLKIFNTLTRQKEEFKPIHAGEVGMYVCGITVYDLCHIGHGRTFVAFDVVARYLRFLGYKLKYVRNITDIDDKIIKRANENGESFVAMVDRMIAEMHKDFDALNILRPDMEPRATHHIAEIIELTEQLIAKGHAYVADNGDVMFDVPTDPTYGVLSRQDLDQLQAGARVDVVDDKRNPMDFVLWKMSKEGEPSWPSPWGAGRPGWHIECSAMNCKQLGNHFDIHGGGSDLMFPHHENEIAQSTCAHDGQYVNYWMHSGMVMVDREKMSKSLGNFFTVRDVLKYYDAETVRYFLASGHYRSQLNYSEENLKQARAALERLYTALRGTDKTVAPAGGEAFEARFIEAMDDDFNTPEAYSVLFDMAREVNRLKAEDMAAANAMASHLRKLSAVLGLLEQEPEAFLQSGAQADDSEVAEIEALIQQRLDARKAKDWAAADAARDRLNEMGIVLEDGPQGTTWRRK | 1.4 ± 0.69 | 0.0439 ± 0.056
cysS M294Q (protein) MLKIFNTLTRQKEEFKPIHAGEVGMYVCGITVYDLCHIGHGRTFVAFDVVARYLRFLGYKLKYVRNITDIDDKIIKRANENGESFVAMVDRMIAEMHKDFDALNILRPDMEPRATHHIAEIIELTEQLIAKGHAYVADNGDVMFDVPTDPTYGVLSRQDLDQLQAGARVDVVDDKRNPMDFVLWKMSKEGEPSWPSPWGAGRPGWHIECSAMNCKQLGNHFDIHGGGSDLMFPHHENEIAQSTCAHDGQYVNYWMHSGMVMVDREKMSKSLGNFFTVRDVLKYYDAETVRYFLQSGHYRSQLNYSEENLKQARAALERLYTALRGTDKTVAPAGGEAFEARFIEAMDDDFNTPEAYSVLFDMAREVNRLKAEDMAAANAMASHLRKLSAVLGLLEQEPEAFLQSGAQADDSEVAEIEALIQQRLDARKAKDWAAADAARDRLNEMGIVLEDGPQGTTWRRK | 0.496 ± 0.037 | 0.00706 ± 0.00086
cysS M294D (protein) MLKIFNTLTRQKEEFKPIHAGEVGMYVCGITVYDLCHIGHGRTFVAFDVVARYLRFLGYKLKYVRNITDIDDKIIKRANENGESFVAMVDRMIAEMHKDFDALNILRPDMEPRATHHIAEIIELTEQLIAKGHAYVADNGDVMFDVPTDPTYGVLSRQDLDQLQAGARVDVVDDKRNPMDFVLWKMSKEGEPSWPSPWGAGRPGWHIECSAMNCKQLGNHFDIHGGGSDLMFPHHENEIAQSTCAHDGQYVNYWMHSGMVMVDREKMSKSLGNFFTVRDVLKYYDAETVRYFLDSGHYRSQLNYSEENLKQARAALERLYTALRGTDKTVAPAGGEAFEARFIEAMDDDFNTPEAYSVLFDMAREVNRLKAEDMAAANAMASHLRKLSAVLGLLEQEPEAFLQSGAQADDSEVAEIEALIQQRLDARKAKDWAAADAARDRLNEMGIVLEDGPQGTTWRRK | 0.539 ± 0.056 | 
cysS L387W (protein) MLKIFNTLTRQKEEFKPIHAGEVGMYVCGITVYDLCHIGHGRTFVAFDVVARYLRFLGYKLKYVRNITDIDDKIIKRANENGESFVAMVDRMIAEMHKDFDALNILRPDMEPRATHHIAEIIELTEQLIAKGHAYVADNGDVMFDVPTDPTYGVLSRQDLDQLQAGARVDVVDDKRNPMDFVLWKMSKEGEPSWPSPWGAGRPGWHIECSAMNCKQLGNHFDIHGGGSDLMFPHHENEIAQSTCAHDGQYVNYWMHSGMVMVDREKMSKSLGNFFTVRDVLKYYDAETVRYFLMSGHYRSQLNYSEENLKQARAALERLYTALRGTDKTVAPAGGEAFEARFIEAMDDDFNTPEAYSVLFDMAREVNRLKAEDMAAANAMASHLRKWSAVLGLLEQEPEAFLQSGAQADDSEVAEIEALIQQRLDARKAKDWAAADAARDRLNEMGIVLEDGPQGTTWRRK | 0.198 ± 0.1 | 0.024 ± 0.0081
cysS L387Q (protein) MLKIFNTLTRQKEEFKPIHAGEVGMYVCGITVYDLCHIGHGRTFVAFDVVARYLRFLGYKLKYVRNITDIDDKIIKRANENGESFVAMVDRMIAEMHKDFDALNILRPDMEPRATHHIAEIIELTEQLIAKGHAYVADNGDVMFDVPTDPTYGVLSRQDLDQLQAGARVDVVDDKRNPMDFVLWKMSKEGEPSWPSPWGAGRPGWHIECSAMNCKQLGNHFDIHGGGSDLMFPHHENEIAQSTCAHDGQYVNYWMHSGMVMVDREKMSKSLGNFFTVRDVLKYYDAETVRYFLMSGHYRSQLNYSEENLKQARAALERLYTALRGTDKTVAPAGGEAFEARFIEAMDDDFNTPEAYSVLFDMAREVNRLKAEDMAAANAMASHLRKQSAVLGLLEQEPEAFLQSGAQADDSEVAEIEALIQQRLDARKAKDWAAADAARDRLNEMGIVLEDGPQGTTWRRK | 0.677 ± 0.56 | < 0.0108
